The whole screen tested about 410,000 compounds, of which about 5,000 (1.2%) were called active. Inconclusive results, whose numbers are uncertain, are shown with a selection of clear calls. Calls come from the whole dose curve; as a rule, active = well fitted inhibition curve with a large enough effect; inconclusive = small, poorly fitted or top-dose-only effect; inactive = no such curve, though single readings can be large or run the other way. Potencies of inconclusive entries are doubtful fits and often do not repeat.
experiment: qHTS for Inhibitors of TGF-b; conditions: HepG2 CAGA-GFP TGF-b/SMAD3 reporter, GFP fluorescence, 18 h, TGF-beta stimulated, 500 pg/mL final; series mostly up to 46.1 µM; activity, negative = inhibition: at the top concentration; note: nearly all actives have a fitted effect of over 65% in size
In short: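 GFP signal (ex488/em500-530) from TGF-beta-stimulated HEPG2 CAGA-GFP cells, 500 pg/mL final, 18 h at 37 degrees C in DMEM plus 1% FBS, normalized to unstimulated and DMSO-stimulated controls.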
% is set by controls: 0 for no effect and ±100 for the full control effect; potency is the fitted concentration of half-maximal effect; tags give direction and shape of the fitted curve.

Row | SMILES | Potency | activity, negative = inhibition
1 | CC(C)c1ccc(NC(=O)C2CCCN(S(=O)(=O)c3ccc4c(c3)C(C)(C)C(=O)N4C)C2)cc1 (configuration not stated) | inconclusive: 15.8 µM [inhibitor, single point] | 
2 | CCCCCCCCNC(=S)NCCN1CCCCC1 | inconclusive: 15.8 µM [inhibitor, single point] | 
3 | Cc1ccc(S(=O)(=O)NC2c3cccc4cccc(c34)C2Sc2nncn2C)cc1 (configuration not stated) |  | inactive: 28.7%
4 | CCOC(=O)CN(Cc1cc(OC)cc(N(C)C)c1OC)C(=O)C1CC(CO[Si](C)(C)C(C)(C)C)=CN1C(=O)OC(C)(C)C (configuration not stated) | inconclusive: 28.2 µM [inhibitor, single point] | 
5 | COc1cccc(C(=O)c2c(C)c(CCC#N)n3ccccc23)c1 |  | inactive: -4.78%
6 | COc1ccccc1CNS(=O)(=O)c1ccc2c(c1)NC(=O)CC(=O)N2 |  | inactive: 6.38%
7 | COc1ccc(CNC(=O)c2c3c(nc4ccccc24)C(=O)N(C2CCCCC2)C3)cc1 | inconclusive: 10 µM [inhibitor, single point] | 
8 | CCOC(=O)c1c(NC(=O)CSc2nnc(C)s2)sc2c1CCC(CC)C2 (configuration not stated) | inconclusive: 35.5 µM [inhibitor, single point] | 
9 | COc1ccccc1-n1cnc2cc(NCc3cccs3)ccc21 | inconclusive: 22.4 µM [inhibitor, single point] | 
10 | COc1ccc(C2C(C#N)=C(N)Oc3n[nH]c(C)c32)cc1CSc1ccccn1 (configuration not stated) | inconclusive: 35.5 µM [inhibitor, single point] | 
11 | COc1ccc(-n2c(C(C)n3nc(C)c([N+](=O)[O-])c3C)n[nH]c2=S)cc1 (configuration not stated) |  | inactive: -6.33%
12 | CCSc1nc(=S)n(CC)c(C)c1C(C)=O | inconclusive: 3.16 µM [inhibitor, single point] | 
13 | COc1ccc(Nc2nc(N)c3cc(OC)c(OC)cc3n2)cc1 | inconclusive: 31.6 µM [inhibitor, single point] | 
14 | CCN(CC)C(=O)CC(c1cc(OC)c(OC)c(OC)c1)c1c(O)cc(OC)cc1OC (configuration not stated) | inconclusive: 2.82 µM [inhibitor, partial curve, poor fit] | 
15 | Cn1c(-c2ccc3c(c2)OCO3)cnc1NCc1ccccc1Cl |  | inactive: -29.5%
16 | O=C(Nc1ccccc1)OCc1cn(-c2ccc(Cl)cc2)nn1 | inconclusive: 6.31 µM [inhibitor, single point] | 
17 | CCOC(=O)c1scc(-c2ccccc2)c1S(=O)(=O)Nc1cc(Cl)c(OC)cc1OC | inconclusive: 12.6 µM [inhibitor, single point] | 
18 | Cc1ccc([N+](=O)[O-])cc1NC(=O)C[n+]1ccccc1 |  | inactive: -3.33%
19 | CC1=NN(C(=O)c2ccccc2Br)C(O)(c2ccc(Cl)cc2)C1 (configuration not stated) | inconclusive: 35.5 µM [inhibitor, partial curve, poor fit] | 
20 | CC1(c2nnc(-c3ccccc3)o2)CC(c2ccncc2)=NO1 (configuration not stated) | inconclusive: 0.708 µM [inhibitor, full curve, poor fit] | 
21 | CN(C)c1ccc(/C=C/c2ccnc3ccc(I)cc23)cc1 |  | inactive: 7.62%

Row | SMILES | Potency | activity, negative = inhibition
22 | Cc1cccc(C)c1-n1cccc1/C=C1/C(=N)N2C(=NC1=O)SN=C2S(C)(=O)=O | inconclusive: 7.08 µM [inhibitor, full curve, poor fit] | 
23 | COc1ccc(C)cc1N(C(=O)c1snc(C(N)=O)c1N)C(C(=O)NC1CCCC1)c1ccc(F)cc1 (configuration not stated) | inconclusive: 35.5 µM [inhibitor, single point] | 
24 | O=S(=O)(c1ccc(Br)s1)N1CCN(CCOc2ccccc2)CC1 | inconclusive: 35.5 µM [inhibitor, single point] | 
25 | CC(C)S(=O)(=O)c1csc(C(=O)NN)c1Cl |  | inactive: 12.9%
26 | CNC(=O)/C(C#N)=C/c1c(N(Cc2ccccc2)Cc2ccccc2)nc2c(C)cccn2c1=O | active: 12.6 µM | 
27 | Cc1cccc(C)c1-n1nnnc1C(c1cccs1)N1CCN(C/C=C/c2ccccc2)CC1 (configuration not stated) | inconclusive: 11.2 µM [inhibitor, partial curve] | 
28 | COc1cc(/C=N/NC(=O)CCn2c3ccccc3c3ccccc32)cc(OC)c1OC |  | inactive: -0.731%
29 | CCCc1cnc2c(c1SCC(=O)Nc1ccc(C)c(Cl)c1)c(=O)n(C)c(=O)n2C |  | inactive: -25.8%
30 | COc1cc(/C=C(\C#N)c2nc3ccccc3[nH]2)ccc1OCc1cccc(C(F)(F)F)c1 | inconclusive: 3.55 µM [inhibitor, partial curve, poor fit] | 
31 | Cn1cc(CN2CCN(Cc3ccccc3)CC2)c(-c2cccc(Cl)c2)n1 | inconclusive: 22.4 µM [inhibitor, single point] | 
32 | CCOc1ccccc1NC(=O)c1ccc(F)c(S(=O)(=O)NCc2ccc3c(c2)OCO3)c1 |  | inactive: -19.6%
33 | Brc1ccc(C2=Nn3c(Cn4nnc5ccccc54)nnc3SC2)cc1 | inconclusive: 14.1 µM [inhibitor, single point] | 
34 | Cc1ccc(C)c(OCC(=O)N(C)CC(=O)Nc2ccc(Cl)c(C(F)(F)F)c2)c1 | inconclusive: 17.8 µM [inhibitor, partial curve, poor fit] | 
35 | Nc1c(C(=O)NCc2ccco2)c2nc3ccccc3nc2n1CCc1ccc(F)cc1 | active: 15.8 µM | 
36 | O=C(CSc1nc2ccc(Cl)cc2[nH]1)Nc1ccc2c(c1)CCC2 | inconclusive: 35.5 µM [inhibitor, single point] | 
37 | COc1ccccc1N1CCN(CC(=O)c2ccc3ccn(C(C)=O)c3c2)CC1 |  | inactive: -2.19%
38 | CCCOc1ccc(C(=O)Nc2ccc(S(=O)(=O)N3C[C@@H]4C[C@@H](C3)c3cccc(=O)n3C4)cc2)cc1 | inconclusive: 17.8 µM [inhibitor, partial curve, poor fit] | 
39 | Cc1cc(=O)[nH]c(SCC(=O)Nc2cccc3ccccc23)c1C#N | inconclusive: 22.4 µM [inhibitor, single point] | 
40 | NS(=O)(=O)c1ccc(NC(=O)/C=C/c2ccc3c(c2)OCO3)cc1 |  | inactive: 15.1%
41 | O=C(O)CSc1nnc(COc2ccc([N+](=O)[O-])cc2)n1-c1ccccc1 | inconclusive: 22.4 µM [inhibitor, single point] | 
42 | Cc1ccc(/C=N/Nc2ncc(Cl)cc2Cl)s1 | inconclusive: 7.94 µM [inhibitor, partial curve, poor fit] | 
